Test results taken from publication PMC4336329 (PLoS ONE, 2015).
About 14,000 (4.5%) of roughly 310,000 compounds showed an effect of 50% or more. The effect is printed as a negative number. The list shows a part of the results.

Biological target: human ether-à-go-go-related gene (hERG) potassium channel (human, UniProt Q12809)
Assay: primary screen, population patch clamp on CHO cells stably expressing hERG
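Note: peak tail current of the secondary pulse compared with the same well before compound.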

human ether-à-go-go-related gene (hERG) potassium channel, sequence (Q12809 whole entry, looked up): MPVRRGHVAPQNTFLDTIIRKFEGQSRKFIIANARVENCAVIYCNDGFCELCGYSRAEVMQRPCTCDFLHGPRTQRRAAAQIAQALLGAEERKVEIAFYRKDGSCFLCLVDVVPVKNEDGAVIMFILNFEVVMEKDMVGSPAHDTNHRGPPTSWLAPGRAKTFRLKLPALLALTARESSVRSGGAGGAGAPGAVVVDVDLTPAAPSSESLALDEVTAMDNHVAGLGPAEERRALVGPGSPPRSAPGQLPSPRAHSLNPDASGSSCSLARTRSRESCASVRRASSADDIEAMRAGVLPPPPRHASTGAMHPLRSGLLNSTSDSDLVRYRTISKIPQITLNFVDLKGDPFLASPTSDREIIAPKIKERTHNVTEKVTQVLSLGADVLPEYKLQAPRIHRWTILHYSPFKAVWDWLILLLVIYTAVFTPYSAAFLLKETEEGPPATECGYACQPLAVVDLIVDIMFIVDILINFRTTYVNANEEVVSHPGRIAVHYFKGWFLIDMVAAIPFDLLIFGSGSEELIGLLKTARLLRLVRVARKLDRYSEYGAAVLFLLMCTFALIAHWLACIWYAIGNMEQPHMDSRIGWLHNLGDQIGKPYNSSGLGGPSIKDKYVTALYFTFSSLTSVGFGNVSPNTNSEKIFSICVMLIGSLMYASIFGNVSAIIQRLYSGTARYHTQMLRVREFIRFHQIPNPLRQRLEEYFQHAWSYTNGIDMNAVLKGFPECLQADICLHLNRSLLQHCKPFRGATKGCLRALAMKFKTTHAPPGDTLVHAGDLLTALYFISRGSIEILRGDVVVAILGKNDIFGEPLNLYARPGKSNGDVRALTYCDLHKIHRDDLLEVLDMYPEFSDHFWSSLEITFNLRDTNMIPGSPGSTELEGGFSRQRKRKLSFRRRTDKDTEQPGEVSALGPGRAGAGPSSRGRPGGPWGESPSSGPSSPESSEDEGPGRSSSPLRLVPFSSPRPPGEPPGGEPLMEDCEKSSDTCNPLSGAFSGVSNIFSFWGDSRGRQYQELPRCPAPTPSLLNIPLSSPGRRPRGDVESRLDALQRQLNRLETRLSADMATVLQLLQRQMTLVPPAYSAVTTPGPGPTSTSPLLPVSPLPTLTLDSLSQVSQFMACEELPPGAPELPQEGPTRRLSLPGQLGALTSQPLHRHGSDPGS

Compound	hERG current change (%, negative = inhibition) at 10uM [%]
C/C(=N\NC(=O)c1n[nH]c2c1CCC2)c1cccs1	12.4
Cc1cccc(C(=O)Nc2ccc3c(c2)CC2(C(=O)N(C)C(=O)N(C)C2=O)C2CCCN32)c1 (stereo not drawn)	4.06
CCCC/C(C)=N/NC(=O)C(=O)NCCc1ccccc1	-0.335
CCCc1c(C(=O)OCC)[nH]c2c1C(=O)CCC2	-5.23
CCOC(=O)c1cc2oc(C(c3nnnn3C3CCCCC3)N3CCOCC3)cc2[nH]1 (stereo not drawn)	-37.5
CC(C)(C)CNC(=O)c1ccc2c(c1)S(=O)(=O)c1cc(Cl)ccc1C2=O	3.17
Cc1ccc(-c2nc(=S)c3c(n2Cc2cccnc2)CC(C)(C)OC3)cc1	4.89
Cc1ccc(NC(=O)CCC(=O)NNC(=O)c2ccccc2Cl)c(C)c1	7.76
c1ccc(-c2nc(C3CCCCC3)no2)cc1	-0.00972
COc1cc(/C=N/N2C(C)CCCC2C)cc(OC)c1O (stereo not drawn)	1.42
Cc1ccccc1Cn1c(=O)n(CCC(=O)NCc2ccc3c(c2)OCO3)c(=O)c2ccccc21	2.06
O=C(NCCCN1CCN(c2ccccc2F)CC1)C1CCN(S(=O)(=O)c2cccs2)CC1	-60.6
Cl.NCCOc1ccccc1OCCN	22.1
COC(=O)C1(C#N)C(c2ccccc2)C1(C(=O)OC)C(=O)OC (stereo not drawn)	12.5
CC(OC(=O)CCCN=C1NS(=O)(=O)c2ccccc21)C(=O)N(C)c1ccccc1 (stereo not drawn)	6.83
O=C(NCc1ccc(Cl)cc1)c1ccc2c(=O)n(CC3CCCO3)c(=S)[nH]c2c1 (stereo not drawn)	7.01
CCOC(=O)C1(CCc2ccccc2)CCN(Cc2cc(OC)c(OC)cc2OC)CC1	-77.4
Nc1nc(NC2CCCCC2)nc(NCCO)c1[N+](=O)[O-]	-0.0226
CC(C)(CN1CCNCC1)NS(=O)(=O)c1ccc(Cl)cc1	-60.3
COc1ccc(-c2cc(C(=O)Nc3cccnc3Cl)no2)cc1OC	16.6
CCCCNC(=O)c1onc(CSc2nc3ccccc3[nH]2)c1C(=O)NCCCC	-35.6
CC(NC(=O)COc1cccnc1[N+](=O)[O-])c1ccc(Cl)cc1 (stereo not drawn)	-5.73
Cc1onc(-c2c(F)cccc2Cl)c1C(=O)NC(=S)Nc1c(C)n(C)n(-c2ccccc2)c1=O	13.7

Compound	hERG current change (%, negative = inhibition) at 10uM [%]
O=C(CCC1CCCC1)N=C1SC2CS(=O)(=O)CC2N1Cc1ccccc1 (stereo not drawn)	14.7
COc1cc2c(c(OC)c1O)C(=O)CO2	27.2
COc1ccc(S(=O)(=O)N2CCCCCC2)cc1C(=O)N(C)CC(=O)Nc1ccccc1Br	-2.82
CC(=O)c1ccc(NC(=O)CSc2nc(N)c3cc4c(nc3n2)CCCC4)cc1	8.91
CCCCn1c(N)c(N(CC)C(=O)/C=C/c2ccco2)c(=O)[nH]c1=O	0.82
Cc1ccc(NS(=O)(=O)c2c(C)[nH]c(C)c2C(=O)N2CCCCC2)c(Cl)c1	-2.23
O=C(NCCCO)/C(=C\C=C\c1ccccc1)NC(=O)c1ccccc1Cl	-12.6
Cc1nc([N+](=O)[O-])c(Br)n1Cc1ccccc1	4.73
O=c1[nH]c2cc(S(=O)(=O)CCO)ccc2o1	23.1
CCOc1ccc(NC(=O)CSc2cn[nH]n2)cc1	3.89
Cc1c(C=NCCOCc2ccccc2)cnn1C	7.22
Cc1c(NC(=O)/C(C#N)=C/c2c(N3CCCCC3)nc3ccccn3c2=O)c(=O)n(-c2ccccc2)n1C	4.99
C/C(=N/NC(=O)c1cccc(Br)c1)C1CC2CCC1C2 (stereo not drawn)	15.1
Cc1cnc(C(=O)OCC(=O)c2ccccc2)cn1	16.7
Cc1nonc1-c1ccc2c(c1)OCO2	7.77
Cc1ccc(N2CC(C(=O)N3CCOCC3)CC2=O)cc1C (stereo not drawn)	6.52
COc1cc2c(-c3ccccc3O)nc3c(c(C)nn3-c3ccccc3)c2cc1OC	0.924
O=C1c2ccccc2C(=O)C1(CO)c1ccccc1	27.7
COCCCNC(=S)N(Cc1ccccc1)Cc1ccc(F)cc1	-18.8
CN(CCOc1ccccc1)C(=O)c1cc([N+](=O)[O-])cc([N+](=O)[O-])c1	-56.9
O=C(NCCN1CCOCC1)c1ccc2c(c1)N(Cc1ccccc1)CCS2	-17.7
Cc1ccccc1OCC(=O)Nc1ccc(S(=O)(=O)Nc2onc(C)c2C)cc1	23.9
COC(=O)c1ccc(C)c(NC(=O)CN(c2cc(OC)ccc2OC)S(C)(=O)=O)c1	-36.7

Compound	hERG current change (%, negative = inhibition) at 10uM [%]
CC(=O)N/N=C(\C)CCc1ccccc1	15.7
N#CC1(NC(=O)COC(=O)c2nc(Cl)ccc2Cl)CCCCC1	10.4
COc1ccc(C(=O)NCCCN2CCOCC2)cc1S(=O)(=O)N1CCCc2ccccc21	-29.7
CCCN1CCC(=O)N([C@H](CSc2ccccc2)Cc2ccccc2)CC1	-69.6
CCOc1ccc(OCC(=O)Nc2cc3c(cc2C(=O)O)OCCCO3)cc1	18.5
O=C1OCc2cc(NC(=O)C3CCCO3)ccc21 (stereo not drawn)	7.02
CCc1nc(SCC(=O)Nc2ccc3c(c2)OCCO3)c2oc3ccccc3c2n1	13.6
Cc1cc(NC(=O)CSc2nnc(-c3cccc(Cl)c3)o2)no1	18.5
Cc1nc2ccccc2c(=O)n1NC(=O)c1ccco1	10.1
CC(Cc1ccccc1Sc1ccccc1)N(C)C.O=C(O)/C=C\C(=O)O (stereo not drawn)	-69.5
COc1ccc(NC2c3ccccc3C(=O)N2c2cccnc2)cc1Cl (stereo not drawn)	-28
Cc1cccc2cc(C#N)c(SCc3nnc(-c4ccccc4[N+](=O)[O-])o3)nc12	-6.72
CCCCNC(=O)CCCCCNS(=O)(=O)c1ccc(OC)cc1	13.8
O=C(CN1CCCCCC1)NC(c1ccccc1)c1ccccc1.O=C(O)C(=O)O	-57.7
Cc1cccc(NC(=O)CSc2nc3ccccc3o2)c1	3.5
C=CCNC(=O)CN(c1ccccc1OCC)S(=O)(=O)c1ccc(C)cc1	-12.5
Cc1csc2c(N3CCN(C(=O)Nc4ccc(OC(F)(F)F)cc4)CC3)ncnc12	-32.9
COC(=O)Cc1cc(=O)[nH]c(/N=C(\N)Nc2cccc(C)c2)n1	13.3
O=C1c2ccccc2C(=O)N1CCCC(=O)N1CCCc2ccccc21	-14
COc1ccc(OC)c(NC(=O)CSc2nnc(CNC(=O)c3cccs3)o2)c1	-4.23
Cc1ccc(C(=O)NCCCN2CCOCC2)o1	30.3
COCc1cc(=O)n2[nH]c(C)cc2n1	16
CC1CCN(S(=O)(=O)c2ccc(NC(=O)Cc3ccc(S(=O)(=O)N4CCOCC4)s3)cc2)CC1	-18.9

Compound	hERG current change (%, negative = inhibition) at 10uM [%]
COCCn1c(SCc2ccc(OC)c(F)c2)nnc1-c1ccncc1	8.06
C/C(CC(=O)Nc1cccc(F)c1)=N\NC(=O)C(=O)NC1CCCCC1	12.5
NC(=O)c1ccc(SCC(=O)OCC(=O)NCc2ccco2)c([N+](=O)[O-])c1	8.14
Cl.O=C(O)C1CCN(Cc2ccccn2)CC1	16.2
Cc1c(C(=O)c2ccccc2)c2ccccn2c1CCc1ccccn1	-12.3
Cc1cc(NC(=O)COc2coc(CN3CCN(c4ccccc4)CC3)cc2=O)no1	-21.1
Cc1cc(NCc2ccccc2)n2ncc(-c3ccccc3)c2n1	5.36
Cn1c(Cn2c(=O)sc3ccccc32)nnc1SCC(=O)NC1CCCC1	11.7
CCCCCOC(=O)C1C2C=CC3(CN(c4ccccc4C)C(=O)C13)O2 (stereo not drawn)	8.66
CC(=O)c1c(OC(=O)c2ccccc2Br)ccc2c(C)cc(=O)oc12	-3.46
COc1ccccc1N(CC(=O)NCC1CCCO1)C(=O)CCC(=O)Nc1cc(C)on1 (stereo not drawn)	13.1
O=C(Nc1cc(C(F)(F)F)ccc1N1CCCCC1)c1ccc(Br)o1	13.7
COc1ccc(C(=O)NC(C)c2nnc(SCC(=O)NC3=NCCS3)n2C)cc1 (stereo not drawn)	15.3
COc1ccc(N2C(=O)/C(=C\c3ccco3)N=C2SCC(N)=O)cc1Cl	6.01
Cc1ccc(/C=N\NC(=O)Cn2nnc3ccccc32)o1	-4.11
CC(O)CCc1ccc(O)cc1 (stereo not drawn)	11.7
COC(=O)C1=C(C)NC(C)=C(C(=O)OC)C1c1ccc2ccccc2n1	15.8
Nc1nnc(/C=C/c2ccccc2Cl)s1	12.1
COc1ccc(CCNC(=O)c2ccc(OC)c(OC)c2)cc1OC	3.2
COc1ccc(Cc2noc(CN3CCN(Cc4csc(C)n4)CC3)n2)cc1OC	18.2
Cc1ccccc1-c1nnc(-c2ccccc2)o1	-6.58
